How the values were obtained:
[1] = tested on: C. albicans CaCi-2; assay: Checkerboard with fluconazole, Bliss independence; type: cell-based, Candida albicans; details: 48 hours
Protocol: Each colored box represents the mean of duplicate determinations. […] Error bars, SD.
(§1) Antifungal tolerance and resistance were determined in flat bottom, 96-well microtiter plates using a modified broth microdilution protocol as described[8],[10]. All Hsp90 inhibitors were formulated in dimethyl sulfoxide (DMSO, Sigma Aldrich Co.); fluconazole was dissolved in sterile ddH2O. Each strain was tested in duplicate on at least two occasions. […] To test for fungicidal activity, cultures from MIC plates were spotted on YPD agar plates using a spotter (Frogger, V&P Scientific, Inc). Plates were photographed after 48 h of incubations at 30 °C.

[2] = tested on: 3T3 cells; assay: Mammalian cell toxicity, resazurin dye reduction; details: 3-day culture
[3] = tested on: 293T cells expressing luciferase; assay: 384-well co-culture with fluconazole, human cell survival by luminescence; details: with FL, 48 h
[4] = tested on: C. albicans SN95; assay: Checkerboard with fluconazole then spotting on drug-free agar (fungicidal activity); type: cell-based, Candida albicans; details: 48 h liquid culture, then drug-free solid medium
Protocol: as §1

[5] = tested on: TNF-α secretion by Raw264.7 cells; assay: Cytokine production ELISA after C. albicans infection; type: cell-based, mouse; details: 2 h pre-treatment
Protocol: (§2) After 2 h incubation at 37 °C, medium was flipped off and wells washed two times with 200 μL of warm medium. During incubation of macrophages with Hsp90 inhibitor, a culture of C. albicans grown in YPD overnight at 30 °C was spun down and washed twice with PBS. Cell counts were then determined using a hemocytometer and an inoculum of 6 × 10^5 cells per well was added to the macrophages. Co-culture incubation time was 2 h for measuring secretion of TNF-α and 5 h for measuring IL-1β cytokine levels. To monitor IL-1β production, macrophages were primed with 50 ng/mL of LPS (Sigma; L2630) for 2 h prior to infection with C. albicans. At the end of each experiment 150 mL of media was removed and added to a new 96-well plate that contained a 25 µL of solution of 7× protease inhibitors in water. The plate was frozen and stored at −80 °C until measurement of cytokine levels using ELISA kits from R&D Systems: TNF-α DuoSet (DY410) and IL1-1β/IL-1F2 DuoSet (DY401).

[6] = tested on: IL-1β secretion by Raw264.7 cells; assay: as above; type: cell-based, mouse; details: 2 h pre-treatment, LPS primed
Protocol: as §2

[7] = tested on: HEPG2 cells; assay: Mammalian cell toxicity, resazurin dye reduction; type: cell-based, human; details: 3-day culture
[8] = Single dose plasma pharmacokinetics; type: in vivo, mouse; details: mice, 40 mg/kg subcutaneous
[9] = tested on: Raw264.7 cells; assay: Mammalian cell toxicity, resazurin dye reduction; type: cell-based, mouse; details: 3-day culture

Q: Which “Bliss synergy δ with fluconazole” value [1] does the source give for COc1ccc(CON=C2C=CC=CC3OC3CC(C)OC(=O)c3c(O)cc(O)cc3C2)cc1 (stereo not shown) [CMLD013075] here?
A: 13.0

Q: And the “cytotoxicity to 3T3 relative to HEPG2 (less cytotoxic)” value [2]?
A: at least 10 fold

Q: And the “toxicity to human cells in co-culture” value [3]?
A: much less toxic than radicicol or ganetespib

Q: What about the “fungicidal activity in combination with FL” value [4] of the same compound?
A: transformed the fungistatic azole into a fungicidal combination

Q: What about the “suppression of TNF-α production” value [5] of the same compound?
A: far less suppression than radicicol

Q: And the “suppression of IL-1β production” value [6]?
A: far less suppression than radicicol

Q: And the “toxicity relative to ganetespib (less toxic)” value [7]?
A: > 50 fold

Q: And the “toxicity relative to radicicol (less toxic)” value [7]?
A: > 10 fold

Q: What about the “clearance from the systemic circulation” value [8] of the same compound?
A: relatively rapid clearance from the systemic circulation

Q: What about the “toxicity relative to radicicol or ganetespib” value [9] of the same compound?
A: much less toxic than radicicol or ganetespib

Source: publication PMC6345968, “Structural basis for species-selective targeting of Hsp90 in a pathogenic fungus” (Nature Communications, 2019)
